Sequences with one replicate were seen in a single cluster, so their values are uncertain.
System: ATP
Experiment: switch fluorescence ratio, 500 uM ATP over buffer (Cy3 cluster intensity, sum of 5 cycles each) (fold (ratio)); higher = stronger signal-on switching upon ATP binding; sequences stand for … in TCGTCGGCAGCGTCAGATGTGTATAAGAGACAGTTTTTTTTTTTTTTTTTTTTTTTTT…TC
Details: aptamer strand: ATP DNA aptamer (quencher-CACCTGGGGGAGTATTGCGGAGGAAGG + anchor), 100 nM annealed; ATP concentration: 500 uM; one replicate
Summary of the method: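 Exposure to 500 uM ATP lasted 15 min at 22 °C before imaging, and a selection-buffer image was taken beforehand, for Cy3-labelled switching-strand clusters on a modified Illumina MiSeq flow-cell annealed to 100 nM quencher-labelled ATP aptamer. Five buffer/ATP cycles were run with NaOH stripping and re-annealing between them. The fluorescence ratio per cluster is summed target-cycle over summed buffer-cycle Cy3 intensity, averaged per switch-domain sequence. Clusters outside 100-1000 RFU were excluded.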

TCTCCTCATC
switch fluorescence ratio: 2.29

TAGATTTTAG
switch fluorescence ratio: 0.997

TACCGCTCGC
switch fluorescence ratio: 1.56

TGAAGTTGT
switch fluorescence ratio: 1.07

TTTCATTCTG
switch fluorescence ratio: 0.993

CTTCAACGCC
switch fluorescence ratio: 1.97

CGGGCCATCT
switch fluorescence ratio: 1.06

GCGTGCGTTA
switch fluorescence ratio: 0.981

GGGTAACGGG
switch fluorescence ratio: 0.979

TTCTTTTTT
switch fluorescence ratio: 1.01

ACGTAGCATT
switch fluorescence ratio: 3.22

TGTATGGCCA
switch fluorescence ratio: 0.957

TAAGCTCCGC
switch fluorescence ratio: 1.04

GAATATGGTA
switch fluorescence ratio: 0.997

TGGAACCTGG
switch fluorescence ratio: 1

CGCTAGTGTC
switch fluorescence ratio: 1.1

GCTCGGTCCC
switch fluorescence ratio: 1.01

TCCGGCGAGG
switch fluorescence ratio: 1.16

GGACCTCAGT
switch fluorescence ratio: 0.984

AGTCTAGAAG
switch fluorescence ratio: 0.963

CAAAACATGC
switch fluorescence ratio: 1

GATTACATCC
switch fluorescence ratio: 1.07

AGCCTCAGGT
switch fluorescence ratio: 1.1

GATCGTTATG
switch fluorescence ratio: 1.01

GCCCACCTCG
switch fluorescence ratio: 1.03

AATTGCTCGA
switch fluorescence ratio: 1.01

GGACGCGATT
switch fluorescence ratio: 2.43

GGAATAGAGC
switch fluorescence ratio: 1.01

TAACACGAGA
switch fluorescence ratio: 1.04

CGCAACCCTA
switch fluorescence ratio: 1.75

TTGAGAGCGT
switch fluorescence ratio: 0.991

CTAAGCGTAT
switch fluorescence ratio: 1.02

ACGCGTTTTC
switch fluorescence ratio: 1.02

CGCTATGGAC
switch fluorescence ratio: 2.08

CAGTGGGAGT
switch fluorescence ratio: 1.01

TCACTAAGTT
switch fluorescence ratio: 1.05

CGTCTCGCAC
switch fluorescence ratio: 2.96

CTCCCTTATG
switch fluorescence ratio: 1.08

CATCAACGGC
switch fluorescence ratio: 1.03

AACAGAGTGT
switch fluorescence ratio: 0.992

CGATTTTATC
switch fluorescence ratio: 0.99

TGGCTACCCC
switch fluorescence ratio: 2.12

CATATATTAC
switch fluorescence ratio: 1.01

AGTCGGATCA
switch fluorescence ratio: 1.02

TCGGACCCGA
switch fluorescence ratio: 1.02

AACGGCCGAC
switch fluorescence ratio: 1.06

CCGCTGGGTT
switch fluorescence ratio: 1.5

GTTATCGATA
switch fluorescence ratio: 0.999

TCTTTCGAA
switch fluorescence ratio: 1.01

CGTCTAAGGC
switch fluorescence ratio: 1.1

ACCCTTTGTG
switch fluorescence ratio: 0.999

CTTGGGTTAT
switch fluorescence ratio: 0.98

TTGAGTGTG
switch fluorescence ratio: 1.05

CAAAAATGGT
switch fluorescence ratio: 1.04

ACGTCATGCT
switch fluorescence ratio: 1.1

GTTACACCCC
switch fluorescence ratio: 1.43

ATCTTGCCAC
switch fluorescence ratio: 1.05

CAGTTGGGTG
switch fluorescence ratio: 1.01

GGCGGTGTGT
switch fluorescence ratio: 0.998

TATTACGTAA
switch fluorescence ratio: 1.07

GGGAAAAGC
switch fluorescence ratio: 0.981

CGCTGGCGGG
switch fluorescence ratio: 1.03

AGAGATTGG
switch fluorescence ratio: 0.994

TAAACTAGAA
switch fluorescence ratio: 0.972

CCGCTCAGTA
switch fluorescence ratio: 1.4

GCTGTTGACT
switch fluorescence ratio: 0.979

GACTGGTGAC
switch fluorescence ratio: 1.07

TAGGCAAATA
switch fluorescence ratio: 1.59

AATATTGGCC
switch fluorescence ratio: 1.06

AAGCATAATT
switch fluorescence ratio: 1.31

GTGGCACGT
switch fluorescence ratio: 1

GGGCAGAGGT
switch fluorescence ratio: 0.98

TCTAGGAATC
switch fluorescence ratio: 1.08

CTTTTGATCC
switch fluorescence ratio: 1.04

CGGCTGGGTC
switch fluorescence ratio: 1.01

AAAATTGCTT
switch fluorescence ratio: 1

TTATAAGACC
switch fluorescence ratio: 0.975

AAGGGTGTCG
switch fluorescence ratio: 1

ACCCGGTTGG
switch fluorescence ratio: 1.06

CTCACTCGAA
switch fluorescence ratio: 1.03

CCATGACCCC
switch fluorescence ratio: 1.09

TGCATAAGAC
switch fluorescence ratio: 1.36

CGAAATTCTG
switch fluorescence ratio: 0.991

CAAATGTTAG
switch fluorescence ratio: 1.01

TTCTTATGAG
switch fluorescence ratio: 1.04

GACGACCCAG
switch fluorescence ratio: 1.05

TGCTACTCCG
switch fluorescence ratio: 1.39

GACAGTGGG
switch fluorescence ratio: 0.997

ACTGACATTC
switch fluorescence ratio: 1.15

ATGACTTCTA
switch fluorescence ratio: 1

CATTATGAGC
switch fluorescence ratio: 1.01

GCCGTCGTAC
switch fluorescence ratio: 0.975

CGTCTATCCA
switch fluorescence ratio: 0.978

TCTTTTCCTC
switch fluorescence ratio: 0.967

GGCGAAAGGT
switch fluorescence ratio: 0.983

GGGTTTTCGC
switch fluorescence ratio: 0.976

ATCTTGTGG
switch fluorescence ratio: 1

CCAGCGTACG
switch fluorescence ratio: 1.07

TTTTGCCGGT
switch fluorescence ratio: 0.962

CGCCAGGTTT
switch fluorescence ratio: 1.39

GCTCGACGAG
switch fluorescence ratio: 1.05

TGTCAGTGTT
switch fluorescence ratio: 0.988

GACGGCGTTT
switch fluorescence ratio: 1.43

AGCGCCCCTT
switch fluorescence ratio: 0.982

ACGTGTTCCA
switch fluorescence ratio: 0.974

GCCTATGCGA
switch fluorescence ratio: 1.17

TTCCGTGAGT
switch fluorescence ratio: 1.02

GTGTAGGGAG
switch fluorescence ratio: 1.02

TAAACAGGGG
switch fluorescence ratio: 1.18

ACCGCTTGAA
switch fluorescence ratio: 1.04

CGGTTATCGT
switch fluorescence ratio: 1.03

GAAGTACAGA
switch fluorescence ratio: 1.25

TATGAGCTTG
switch fluorescence ratio: 0.934

AGTTATAGCC
switch fluorescence ratio: 0.946

ACGTGGGCGG
switch fluorescence ratio: 0.983

TGTTGACGAG
switch fluorescence ratio: 0.996

TCACCATGCG
switch fluorescence ratio: 0.969

AAGAGACTAC
switch fluorescence ratio: 1.05

AGCCACCTGG
switch fluorescence ratio: 1.04

ACTCCTACTT
switch fluorescence ratio: 1.14

CGGTCTTAGC
switch fluorescence ratio: 0.98

AGTTGCTAGC
switch fluorescence ratio: 1.03

AAGTGTGAAA
switch fluorescence ratio: 0.988

AACTAAAGCC
switch fluorescence ratio: 1.02

GGATTCAGGA
switch fluorescence ratio: 1.09

GAGCCCCTGA
switch fluorescence ratio: 1.01

GTGCGGGTTC
switch fluorescence ratio: 1.04

GAGTAGGTAT
switch fluorescence ratio: 1.02

CACCAGAGGC
switch fluorescence ratio: 1.02

CGAGCCGTCA
switch fluorescence ratio: 0.975

GTGAAGCCTA
switch fluorescence ratio: 0.935

GATGCGCCGA
switch fluorescence ratio: 0.97

AGACTATACA
switch fluorescence ratio: 1.3

AAGTTCACTT
switch fluorescence ratio: 1.03

CGAGCACTGA
switch fluorescence ratio: 1.16

ATGAGTTATG
switch fluorescence ratio: 1.05

GTTTCGGGCG
switch fluorescence ratio: 1.07

TGGCGCGGAG
switch fluorescence ratio: 1.01

TAGCCCGACC
switch fluorescence ratio: 1.06

TAATGGCATA
switch fluorescence ratio: 0.993

ACCAACACGG
switch fluorescence ratio: 1.21

CGGGAACGAC
switch fluorescence ratio: 1.04

TGAAGTGAGC
switch fluorescence ratio: 1.09

TGTCCCGGGA
switch fluorescence ratio: 0.982

TGAATTCCCT
switch fluorescence ratio: 0.998

ACGTCGGGGT
switch fluorescence ratio: 0.994

TATAGGTACT
switch fluorescence ratio: 1.05

GGTAGTAAAA
switch fluorescence ratio: 1.06

AAATCCGAGT
switch fluorescence ratio: 1.07

AATGCTCTAT
switch fluorescence ratio: 0.973

AACGTGTTAT
switch fluorescence ratio: 0.954

CAGATTTT
switch fluorescence ratio: 0.97

TAGTTGCTAT
switch fluorescence ratio: 1

CTCTTACGGA
switch fluorescence ratio: 1.01

AGTAAGAAGG
switch fluorescence ratio: 0.986

GAGTTACCTG
switch fluorescence ratio: 0.994

GTACTCGTAC
switch fluorescence ratio: 1.07

ATTAAAAGGC
switch fluorescence ratio: 0.989

TACCCTTTTG
switch fluorescence ratio: 1.03

CGTAGCTTG
switch fluorescence ratio: 1.05

GCAACTTCGT
switch fluorescence ratio: 1.01

ATATTTTGCT
switch fluorescence ratio: 0.975

TCGGGTTGAT
switch fluorescence ratio: 1

AAATTTGAA
switch fluorescence ratio: 1.03

TTCCTGCGTA
switch fluorescence ratio: 1.07

CGGTACAGAG
switch fluorescence ratio: 0.99

CGGGTTTCCA
switch fluorescence ratio: 1

GTGTACCCAG
switch fluorescence ratio: 1.02

TGCTTAAAAT
switch fluorescence ratio: 0.973

TGACTCGTGA
switch fluorescence ratio: 1.04

TAAGAGTACC
switch fluorescence ratio: 1.01

CGCTCAGCTC
switch fluorescence ratio: 1.19

TGCCATTGAT
switch fluorescence ratio: 1.04

AGCAAGGAAC
switch fluorescence ratio: 1.38

GGCGTGGGAG
switch fluorescence ratio: 0.982

GTGATTAATA
switch fluorescence ratio: 1.08

CTAAAGGTAT
switch fluorescence ratio: 1

TTATATTAC
switch fluorescence ratio: 1.06

CAGGTTACGG
switch fluorescence ratio: 1.03

ATGTGACCCG
switch fluorescence ratio: 0.979

TATAACCTCA
switch fluorescence ratio: 1.05

TTGCACATAA
switch fluorescence ratio: 1.1

GGGCGGGCTC
switch fluorescence ratio: 1.1

CTCTAAATAA
switch fluorescence ratio: 2.33

CCTAAAGATT
switch fluorescence ratio: 1.05

TCGACTTGCG
switch fluorescence ratio: 0.961

CTTCGAGTA
switch fluorescence ratio: 1.01

TGCTATAGGT
switch fluorescence ratio: 0.99

TGTTGGCTAT
switch fluorescence ratio: 0.975

ACGCCTGTAG
switch fluorescence ratio: 1.02

TCTGCGTACG
switch fluorescence ratio: 1.03

CAACGCGAAT
switch fluorescence ratio: 3.65

CCGGGCCCCA
switch fluorescence ratio: 1.03

AAGCGTACGA
switch fluorescence ratio: 1.02

GAGGGGAAG
switch fluorescence ratio: 0.953

TCCGTTTCAG
switch fluorescence ratio: 0.989

CAATCGGAAC
switch fluorescence ratio: 1

AATAAAGTGT
switch fluorescence ratio: 0.946

CATTTTAACA
switch fluorescence ratio: 0.994

AATCATCTCG
switch fluorescence ratio: 1.07

Source: the supplement of paper PMC10126150
